In the supplement of paper PMC10441789:
This is one part of the list. Antibody binding of pooled human sera (four to six donors per pool; dilution not stated) to peptides of the Trypanosoma cruzi antigen TSSA on microarrays. Quantile-normalised fluorescence in arbitrary units, mean of duplicate arrays; higher = more binding. No active / inactive call. The uninfected pools are read here as the healthy donors of the same country. The strongest signals lie near the top of the scale (about 60,000).

What was measured:
Assay in all cases: antibody binding signal (normalised fluorescence) (arbitrary fluorescence units); higher = stronger serum antibody binding to peptide
[1] = test system: pooled sera of chronic Chagas disease patients, Bolivia
Protocol: (§1)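 Microarray of 15-residue peptides over residues 30-55 of Trypanosoma cruzi TSSAII, each with 1 to 10 substitutions at naturally variable positions, probed with one serum pool per country.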

[2] = test system: pooled sera of chronic Chagas disease patients, Brazil
Protocol: as §1

[3] = test system: pooled sera of chronic Chagas disease patients, Colombia
Protocol: as §1

[4] = test system: pooled sera of chronic Chagas disease patients, Mexico
Protocol: as §1

[5] = test system: pooled sera of chronic Chagas disease patients, USA
Protocol: as §1

[6] = test system: pooled sera of uninfected people, Argentina
Protocol: as §1

[7] = test system: pooled sera of uninfected people, Bolivia
Protocol: as §1

[8] = test system: pooled sera of uninfected people, Brazil
Protocol: as §1

[9] = test system: pooled sera of uninfected people, Colombia
Protocol: as §1

[10] = test system: pooled sera of uninfected people, Mexico
Protocol: as §1

[11] = test system: pooled sera of uninfected people, USA
Protocol: as §1

| Sequence | antibody binding signal [1] | antibody binding signal [2] | antibody binding signal [3] | antibody binding signal [4] | antibody binding signal [5] | antibody binding signal [6] | antibody binding signal [7] | antibody binding signal [8] | antibody binding signal [9] | antibody binding signal [10] | antibody binding signal [11] |
| --- | --- | --- | --- | --- | --- | --- | --- | --- | --- | --- | --- |
| STPPSGTEKKPATGG | 7180 | 42400 | 2650 | 26100 | 12400 | 1830 | 1640 | 528 | 234 | 368 | 1840 |
| TDKKPATGGTPSQPG | 579 | 4600 | 2960 | 760 | 779 | 404 | 616 | 965 | 284 | 445 | 123 |
| GTEKKAATGGAPSQP | 343 | 5510 | 953 | 1410 | 1740 | 415 | 1460 | 121 | 732 | 174 | 144 |
| SGTDKKTATGEAPSP | 26300 | 12000 | 1200 | 331 | 22700 | 169 | 138 | 423 | 191 | 223 | 133 |
| KENKTAAGETPSQSG | 263 | 1010 | 527 | 286 | 1770 | 207 | 191 | 135 | 157 | 258 | 145 |
| GKENKTATGGTPSQS | 397 | 10000 | 5910 | 5660 | 14400 | 434 | 116 | 123 | 100 | 197 | 141 |
| GKDKKPATGETPSQP | 3260 | 32400 | 1630 | 2270 | 19600 | 205 | 174 | 136 | 133 | 567 | 106 |
| GKENKPATGGTPSQS | 464 | 7350 | 3060 | 4440 | 10600 | 806 | 283 | 192 | 113 | 220 | 124 |
| SGKDNKAAAGETPSP | 459 | 4810 | 1970 | 1220 | 1870 | 230 | 369 | 126 | 608 | 113 | 540 |
| SGKENKPATGGAPSP | 2200 | 16900 | 3620 | 4920 | 17600 | 8200 | 4040 | 148 | 228 | 376 | 254 |
| SGKDKKPATGGAPSP | 484 | 781 | 945 | 871 | 1630 | 259 | 321 | 105 | 248 | 111 | 99.9 |
| KDNKPAAGGAPSQSG | 245 | 1550 | 510 | 215 | 265 | 221 | 187 | 131 | 152 | 137 | 136 |
| TENKPATGETPSQPG | 32200 | 44300 | 287 | 657 | 29000 | 404 | 1100 | 463 | 234 | 1710 | 279 |
| GTEKKTAAGETPSPS | 241 | 356 | 557 | 686 | 3560 | 140 | 587 | 148 | 623 | 326 | 1830 |
| PPSGKENKPAAGETP | 30800 | 6490 | 876 | 2470 | 13200 | 3970 | 3560 | 304 | 1040 | 339 | 657 |
| PSGTEKKTATGGAPS | 668 | 4960 | 4140 | 4730 | 3510 | 552 | 490 | 136 | 131 | 307 | 317 |
| DNKPAAGGAPSPPGA | 677 | 3320 | 1330 | 224 | 844 | 202 | 318 | 421 | 256 | 345 | 154 |
| DNKPATGEAPSPPGA | 52000 | 50600 | 305 | 184 | 39500 | 827 | 376 | 365 | 146 | 220 | 172 |
| SGKDKKTATGETPSP | 330 | 512 | 529 | 637 | 5610 | 282 | 124 | 89.9 | 241 | 104 | 417 |
| TSSTPPSGTDNKPAA | 45400 | 51600 | 4890 | 11400 | 30700 | 2870 | 832 | 817 | 418 | 901 | 920 |
| TEKKAATGGAPSQSG | 379 | 1060 | 1530 | 2360 | 2930 | 406 | 804 | 138 | 1090 | 366 | 483 |
| GKDNKPAAGGAPSQS | 305 | 1320 | 857 | 1070 | 690 | 183 | 305 | 116 | 107 | 102 | 128 |
| TENKTAAGGAPSPPG | 561 | 300 | 4890 | 672 | 757 | 396 | 172 | 526 | 191 | 382 | 200 |
| SGTEKKAAAGGTPSP | 213 | 1310 | 10200 | 1670 | 2630 | 128 | 612 | 1680 | 215 | 102 | 209 |
